PubChem BioAssay AID588342 (National Center for Advancing Translational Sciences (NCATS), 2011)
Out of some 360,000 compounds screened, about 25,000 (6.9%) were called active. Inconclusive results, whose numbers are uncertain, are shown with a selection of clear calls. Calls follow the shape of the dose curve; as a rule, active = well fitted inhibition curve with a large enough effect; inconclusive = small, poorly fitted or top-dose-only effect; inactive = flat fitted curve, though single readings scatter. Potencies beside an inconclusive call are fits to weak or partial responses and may not hold up.
Also: nearly all actives have a fitted effect of over 55% in size.
Potency is read from the fitted curve at half-maximal effect; tags tell the direction and shape of the fitted curve.

Each molecule was assayed against Luciferin 4-monooxygenase (Photinus pyralis) (UniProt P08659) (assay: qHTS profiling assay for firefly luciferase inhibitor/activator using purifed enzyme and Km concentrations of substrates (counterscreen for miR-21 project)). Conditions: purified FLuc, luminescence inhibition; series mostly up to 57.5 µM.
Sequence of UniProt P08659 (P08659 whole entry, looked up): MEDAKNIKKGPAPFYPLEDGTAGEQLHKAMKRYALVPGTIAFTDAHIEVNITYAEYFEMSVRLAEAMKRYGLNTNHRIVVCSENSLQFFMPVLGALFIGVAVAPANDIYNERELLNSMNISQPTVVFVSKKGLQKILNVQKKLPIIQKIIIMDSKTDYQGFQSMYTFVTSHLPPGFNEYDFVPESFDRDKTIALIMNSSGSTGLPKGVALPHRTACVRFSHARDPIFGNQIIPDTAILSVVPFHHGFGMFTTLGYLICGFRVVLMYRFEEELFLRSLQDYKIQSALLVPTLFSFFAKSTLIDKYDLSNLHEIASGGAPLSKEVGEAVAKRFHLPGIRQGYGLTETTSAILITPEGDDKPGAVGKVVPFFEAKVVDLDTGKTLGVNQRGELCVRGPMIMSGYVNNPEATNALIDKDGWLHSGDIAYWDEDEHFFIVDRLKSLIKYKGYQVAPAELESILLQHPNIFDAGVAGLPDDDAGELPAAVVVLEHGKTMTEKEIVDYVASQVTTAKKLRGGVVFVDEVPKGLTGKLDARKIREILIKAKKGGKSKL
Outline: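 Purified P. pyralis luciferase, 10 nM final, with Km-level 10 uM D-luciferin and 10 uM ATP in 50 mM Tris acetate pH 7.5, 10 mM Mg acetate, 0.01% Tween-20, 0.05% BSA; 6-point qHTS titration about 60 µM downward; luminescence read.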
With `COc1ccc2ccc(Oc3ncccn3)cc2c1` the Potency was “inactive”. `CCOC(=O)c1[nH]c2ccccc2c1NC(=S)Nc1ccccc1C` was tested, and the Potency was inconclusive: 30.1 µM [inhibitor, partial curve, poor fit]. With `CCOC(=O)c1cnn(-c2ccccn2)c1N` the Potency was active: 21.3 µM. In the case of `COc1ccc(Cc2nc(C(=O)Nc3ccc(F)cc3)cs2)cc1`, the Potency is reported as inconclusive: 23.9 µM [inhibitor, single point]. For `Cc1nn(-c2ccccc2)c2sc(C(=O)O)cc12`, the Potency was inconclusive: 37.9 µM [inhibitor, partial curve, poor fit]. For `COC(C(=O)N/N=C/c1ccc(OCC(=O)N2CCOCC2)cc1)c1ccccc1` (centres undefined), the Potency was inconclusive: 37.9 µM [inhibitor, partial curve, poor fit]. In the case of `O=C(O)c1ccc(CNCc2cccc(Cl)c2Cl)cc1`, the Potency is reported as “inactive”. In the case of `COC(=O)c1c(C)[nH]c(C(=O)/C=C/c2ccccc2Cl)c1C`, the Potency is reported as inconclusive: 16.9 µM [inhibitor, partial curve, poor fit]. In the case of `Cc1nc2ccc(C(=O)Nc3cccc([N+](=O)[O-])c3)cc2s1`, the Potency is reported as inconclusive: 23.9 µM [inhibitor, partial curve, poor fit]. With `CCn1nc(NC(=O)COC)c2cc3cc(C)ccc3nc21` the Potency was inconclusive: 37.9 µM [inhibitor, single point]. In the case of `COc1ccccc1N1CCN(C(=O)Nc2cccc(Cl)c2)CC1`, the Potency is reported as inconclusive: 37.9 µM [inhibitor, partial curve, poor fit]. For `O=C(CSCc1cc(=O)c2ccccc2[nH]1)Nc1cccc(C(F)(F)F)c1`, the Potency was “inactive”. With `CC(=O)N1c2ccccc2C(=O)C1N1CCN(c2cc(Cl)ccc2C)CC1` (centres undefined) the Potency was “inactive”. For `Cn1c(-n2c(CCN3C(=O)c4ccccc4C3=O)nc3ccccc3c2=O)nc2ccccc21`, the Potency was inconclusive: 37.9 µM [inhibitor, partial curve, poor fit]. With `CC(C)Cc1nnc(NC(=O)CSc2nc(O)c(Cc3ccccc3)c(=O)[nH]2)s1` the Potency was inconclusive: 13.5 µM [inhibitor, partial curve, poor fit]. With `CCOC(=O)c1nnc(-c2ccccc2)nc1N1CCSCC1` the Potency was inconclusive: 37.9 µM [inhibitor, single point]. With `O=C(/C=C/c1cccs1)c1ccc(Br)cc1` the Potency was active: 4.78 µM. With `Cn1cccc1C(=O)Nc1nccs1` the Potency was inconclusive: 26.9 µM [inhibitor, partial curve, poor fit]. `CC(=O)NS(=O)(=O)c1ccc(NC(=O)c2ccc(NC(=O)c3cccs3)cc2)cc1` was tested, and the Potency was inconclusive: 21.3 µM [inhibitor, single point]. In the case of `Cc1cccc(-c2ncc(S(=O)(=O)C(C)(C)C)c(N)n2)c1`, the Potency is reported as inconclusive: 4.78 µM [inhibitor, full curve]. For `CC(/C=C/c1ccco1)=N/NC(=O)Cc1cccs1`, the Potency was inconclusive: 23.9 µM [inhibitor, partial curve, poor fit]. For `CC(CNC(=O)CN1C(=O)COc2ccc(S(=O)(=O)N3CCCCC3)cc21)c1ccccc1` (centres undefined), the Potency was “inactive”. In the case of `CC(Sc1ccccn1)C(=O)Nc1ccc2c(c1)OCCO2` (centres undefined), the Potency is reported as inconclusive: 26.9 µM [inhibitor, partial curve]. For `O=C(/C=C/c1ccc(-c2ccccc2[N+](=O)[O-])o1)c1ccc(Br)cc1`, the Potency was inconclusive: 37.9 µM [inhibitor, partial curve, poor fit]. With `Cc1oc2cc3oc(=O)c(CCC(=O)NCCCC(=O)O)c(C)c3cc2c1C` the Potency was inconclusive: 33.8 µM [inhibitor, single point]. With `COCCCC1CCN(Cc2nc(-c3ccccc3)no2)CC1` the Potency was inconclusive: 37.9 µM [inhibitor, partial curve, poor fit]. For `O=C(CNC(=O)c1ccccn1)N/N=C/c1ccc2c(c1)OCO2`, the Potency was inconclusive: 23.9 µM [inhibitor, single point]. With `O=C(NC1CCCCCC1)C1CCC(=O)N(Cc2ccccc2F)C1` (centres undefined) the Potency was “inactive”. With `COC(=O)/C(C#N)=C1/C=Cc2ccccc2N1` the Potency was inconclusive: 26.9 µM [inhibitor, partial curve, poor fit]. `CC(/C=N/NC(=O)CSc1ccccn1)=C\c1ccc(C(C)C)cc1` was tested, and the Potency was inconclusive: 23.9 µM [inhibitor, single point]. With `CCCCC(=O)OCc1c(-c2cccc(OC)c2)ncc2ccccc12` the Potency was “inactive”. With `O=C(CN(CCc1ccccc1)S(=O)(=O)c1ccc(Cl)cc1)N/N=C/c1ccc2c(c1)OCO2` the Potency was “inactive”. `Cc1sc2c(c1C)CN(Cc1ccncc1)CN2C(=O)c1ccco1` was tested, and the Potency was inconclusive: 26.9 µM [inhibitor, single point]. In the case of `CCOc1cc(C#N)ccc1OCC(=O)NNC(=O)CC1CCS(=O)(=O)C1` (centres undefined), the Potency is reported as “inactive”. In the case of `COc1cc(/C=N/N=C(\N)c2nonc2N)ccc1O`, the Potency is reported as active: 21.3 µM. `O=c1c(/C=C(\O)c2ccccc2)nc2ccccc2n1-c1ccccc1` was tested, and the Potency was inconclusive: 10.7 µM [inhibitor, partial curve]. With `Cc1cc(Cl)cc(Cl)c1OCCOc1cccc2cccnc12` the Potency was inconclusive: 37.9 µM [inhibitor, partial curve, poor fit]. With `O=C(NCc1ccco1)c1cccn2c(=O)c3cc4ccccc4cc3nc12` the Potency was “inactive”. In the case of `CCN(CC)c1ccc(NC(=O)c2ccc(=O)[nH]c2)cc1S(=O)(=O)Nc1ccccc1OC`, the Potency is reported as inconclusive: 26.9 µM [inhibitor, partial curve, poor fit]. For `O=C(O)c1cccc(Cn2c(Cl)c(/C=N/NC(=O)c3cc4ccccc4cc3O)sc2=O)c1`, the Potency was inconclusive: 37.9 µM [inhibitor, single point]. `COc1ccc(C(=O)Nc2ccc3[nH]ncc3c2)cc1OC` was tested, and the Potency was inconclusive: 19 µM [inhibitor, partial curve, poor fit]. In the case of `CCOC(=O)c1csc(-c2ccc(OC)c(OC)c2)n1`, the Potency is reported as inconclusive: 37.9 µM [inhibitor, partial curve, poor fit]. In the case of `CC(C)(C)N/N=C1\CC(c2ccccc2)Oc2ccccc21` (centres undefined), the Potency is reported as “inactive”. For `CCCCn1nc(NC(=O)CCC)c2cc3cc(OC)ccc3nc21`, the Potency was “inactive”.
